Reference: the supplement of paper PMC10600219
Where a name gives a salt, the structure may show the parent alone. Over roughly 2,800 compounds, “cell viability relative to vehicle” has its median near 1.1; the lowest 2% begin near 0.19. Some of the results follow.

tested on: NCI-H2228 parental; assay: cell viability relative to vehicle (fraction of vehicle); NCI-H2228 is an ALK-positive lung cancer line and DTP means drug-tolerant persister; higher = less growth inhibition; details: 100 nM; treatment time 6 days
How it was run: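 Values give cell viability as a fraction of vehicle-treated cells. Parental and drug-tolerant persister NCI-H2228 cells (persisters made with 1000 nM of a targeted drug for 13 days) were exposed in 384-well plates to the 3114-agent TargetMol anti-cancer compound library at 100 nM, with DMSO as vehicle. ATP was then read after 6 days by the CellTiter-Glo 3D Cell Viability Assay.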

SMILES | cell viability
O=C(O)CNC(=O)c1c(O)c2ccccc2n(Cc2ccccc2)c1=O | 1.1
CC(CCc1ccccc1)NC(C)C(O)c1ccc(O)cc1 (configuration not stated) [Nylidrin hydrochloride] | 0.957
C[C@]12CC[C@H](O)C[C@H]1CC[C@@H]1[C@@H]2CC[C@]2(C)[C@@](O)(c3ccoc3)CC[C@]12O [Rostafuroxin] | 1.03
COc1ccc(/C=C/C=C2C(=O)NC(=O)NC2=O)cc1 | 1.17
C[N+](C)(C)CCCCCCCCCC[N+](C)(C)C [Decamethonium bromide] | 1.05
c1cnc(N2CCNCC2)nc1 [2-(1-Piperazinyl)pyrimidine] | 1.25
C[C@H]1CCC2N(C1)C[C@H]1C3CC4[C@@H](CC(=O)C5C[C@@H](O)CC[C@@]54C)C3CCC1[C@]2(C)O (some centres not stated) [Peiminine] | 1.12
CCc1c2c(nc3ccccc13)-c1cc3c(c(=O)n1C2)COC(=O)[C@]3(O)CC [7-Ethylcamptothecin] | 0.054
CCNC(=O)C[C@@H]1N=C(c2ccc(Cl)cc2)c2cc(OC)ccc2-n2c(C)nnc21 [Molibresib] | 1.07
CC(C)=CCC[C@]1(C)C=Cc2c(O)c3c(c(CC=C(C)C)c2O1)O[C@]12C(=C[C@@H]4C[C@H]1C(C)(C)O[C@@]2(C/C=C(/C)C(=O)O)C4=O)C3=O [Gambogic Acid] | 1.06
CN1c2ccccc2C(NCCCCCCC(=O)O)c2ccc(Cl)cc2S1(=O)=O (configuration not stated) [Tianeptine sodium] | 0.989
COC(=O)Nc1nc2ccccc2[nH]1 [Carbendazim] | 1.18
O=C/C=C/c1ccccc1 [Cinnamaldehyde] | 1.06
N#Cc1nn(-c2c(Cl)cc(C(F)(F)F)cc2Cl)c(N)c1[S+]([O-])C(F)(F)F (configuration not stated) [Fipronil] | 1.11
CC[C@@]1(O)C(=O)OCc2c1cc1n(c2=O)Cc2cc3ccccc3nc2-1 [(S)-(+)-Camptothecin] | 0.0882
COc1cc2c3c(c1OC)-c1ccccc1C[C@H]3N(C)CC2 [Nuciferine] | 0.985
O=P(O)(NCCCl)NCCCl [Palifosfamide] | 1.06
c1c2c(cc3c1OCO3)-c1cc3ccc4c(c3c[n+]1CC2)OCO4 [Coptisine] | 1.06
c1c2c(cc3c1OCO3)-c1cc3ccc4c(c3c[n+]1CC2)OCO4 [Coptisine chloride] | 0.97
C[C@H]1CCC/C=C/[C@@H]2C[C@H](O)C[C@H]2[C@H](O)/C=C/C(=O)O1 [Brefeldin A] | 0.0967
CCC12C=CCN3CC[C@@]4(c5ccc(OC)cc5N(C)[C@H]4[C@@](O)(C(=O)OC)[C@@H]1OC(C)=O)[C@@H]32 (some centres not stated) [Vindoline] | 1.06
O=C(CBr)c1ccc(O)cc1 [PTP Inhibitor I] | 1.01
Cc1ncc(CNC(=O)N(CCCl)N=O)c(N)n1 [Nimustine Hydrochloride] | 1.05
COC(=O)[C@]1(C)CC[C@]2(C)CC[C@]3(C)C4=CC=C5C(=CC(=O)C(O)=C5C)[C@]4(C)CC[C@@]3(C)[C@@H]2C1 [Pristimerin] | 1.03
CC1=C(O)C(=O)C=C2C1=CC=C1[C@@]2(C)CC[C@@]2(C)[C@@H]3C[C@](C)(C(=O)O)CC[C@]3(C)CC[C@]12C [Celastrol] | 1.03
COc1cc(-n2c(=S)[nH]c3ccccc3c2=O)c(Cl)cc1Cl [Mdivi 1] | 1.08

SMILES | cell viability
N.N.[Cl][Pt][Cl] [Cisplatin] | 1.24
COc1ccc(C(=O)N2CCCC2=O)cc1 [Aniracetam] | 1.08
O=C(O)CCCCCCCCCO [10-Hydroxydecanoic Acid] | 1.17
O=C(O[C@H]1C[C@H]2CC[C@@H](C1)[N+]21CCCC1)C(O)(c1ccccc1)c1ccccc1 [Trospium chloride] | 1.24
O=C(O)CCCc1ccc(N(CCCl)CCCl)cc1 [Chloroambucil] | 1
COc1ccc(-n2nc(C(F)(F)F)cc2-c2ccc(Cl)cc2)cc1 | 1.12
C[C@]12CCC(=O)C=C1CC[C@@H]1[C@@H]2C(=O)C[C@]2(C)C(=O)CC[C@@H]12 [Adrenosterone] | 1.16
NC(=O)CN1CC(O)CC1=O (configuration not stated) [Oxiracetam] | 1
Cc1c(C(=O)Nc2cccc(C(F)(F)F)c2)cc(-c2ccccc2)n1CCCN1CCOCC1 | 0.941
CC(C)=CCC[C@H](C(=O)O)[C@H]1CC[C@]2(C)C3=C(CC[C@@]12C)[C@@]1(C)CCC(=O)C(C)(C)[C@H]1CC3 [β-Elemonic Acid] | 1.07
Clc1ccc([C@]23CNC[C@H]2C3)cc1Cl [Amitifadine hydrochloride] | 1.25
CN1CCC(c2c[nH]c3ccc(O)cc23)CC1 | 1.06
C1=C2CCCN[C@H]2[C@@H]2C[C@H]1[C@H]1CCCCN1C2 [Aloperine] | 0.944
COc1cc([C@@H]2c3cc4c(cc3[C@H](O)[C@H]3COC(=O)[C@@H]23)OCO4)cc(OC)c1OC [Picropodophyllin] | 0.795
C/C(=C\c1csc(C)n1)[C@@H]1C[C@@H]2O[C@]2(C)CCC[C@H](C)[C@H](O)[C@@H](C)C(=O)C(C)(C)[C@@H](O)CC(=O)O1 [Epothilone B] | 0.141
C=C[C@H]1CN2CC[C@H]1C[C@@H]2[C@@H](O)c1ccnc2ccccc12 [Cinchonine] | 1.14
C1CCc2nnnn2CC1 [Pentetrazol] | 1.21
C/C=C/c1cc(OC)c(OC)cc1OC [alpha-Asarone] | 0.991
C=CC[C@]1(O)CC[C@H]2[C@@H]3CCC4=CC(=O)CCC4=C3C=C[C@@]21C [Altrenogest] | 1.25
COCC1(CO)C(=O)C2CCN1CC2 (configuration not stated) | 1.04
Cc1ccccc1-n1c(Cn2cnc3c(N)ncnc32)nc2cccc(C)c2c1=O | 1.11
C=CCN1CC[C@]23c4c5ccc(O)c4O[C@H]2[C@@H](OCCOCCOCCOCCOCCOCCOCCOC)CC[C@@]3(O)[C@H]1C5 [Naloxegol oxalate] | 1.03
COC[C@H]1OC(=O)c2coc3c2[C@@]1(C)C1=C(C3=O)[C@@H]2CCC(=O)[C@@]2(C)C[C@H]1OC(C)=O [Wortmannin] | 1.03
CC1(C)CC(O)CC(C)(C)N1[O] [Tempol] | 1.12
O=S(=O)(CC1CS1)c1ccc(Oc2ccccc2)cc1 (configuration not stated) | 1.04
CN1[C@@H]2CC(O)C[C@H]1[C@@H]1O[C@@H]12 (some centres not stated) [Scopine] | 1.06

SMILES | cell viability
NCCCNCCCN [Bis(3-aminopropyl)amine] | 0.96
C#C[C@]1(O)CC[C@H]2[C@@H]3CCC4=CC(=O)CC[C@]4(C)[C@H]3CC[C@@]21C [Ethisterone] | 1.13
CC(=O)OC(C)(C)/C=C/C(=O)[C@](C)(O)[C@H]1[C@H](O)C[C@@]2(C)[C@@H]3CC=C4[C@H](C[C@H](O)C(=O)C4(C)C)[C@]3(C)C(=O)C[C@]12C [Cucurbitacin B] | 0.223
CC(C)(C)c1cc(C(C)(C)C)c2c(c1)C(O)(C(F)(F)F)C(=O)O2 (racemic) | 1.06
CC[C@H]1CN2CC[C@H]1C[C@@H]2[C@@H](O)c1ccnc2ccc(OC)cc12 [Hydroquinidine] | 0.984
O=C(N[C@H]1CN2CCC1CC2)c1ccc(Cl)cc1 | 0.943
C=CC[C@]1(O)CC[C@H]2[C@@H]3CCC4=CCCC[C@@H]4[C@H]3CC[C@@]21C [Allylestrenol] | 1.22
NCC(CC(=O)O)c1ccccc1 (configuration not stated) [Phenibut] | 1.09
COc1ccc(/C=C/c2cc(OC)cc(OC)c2)cc1 [Trimethoxystilbene] | 1.05
C[C@]12CC[C@H](O)C[C@H]1CC[C@@H]1[C@@H]2CC[C@]2(C)[C@@H](c3ccc(=O)oc3)CC[C@]12O [Bufalin] | 0.423
CN1[C@@H]2CC[C@H]1C[C@@H](OC(=O)[C@H](CO)c1ccccc1)C2 [L-Hyoscyamine] | 1.25
CCC(C)C(=O)O[C@@H]1[C@@H](OC(C)=O)[C@]2(C)[C@H](C(C)=O)CC[C@@]23O[C@]32CC[C@H]3C[C@@H](O[C@H]4C[C@@H](OC)[C@H](O[C@@H]5O[C@H](C)[C@@H](O)[C@@H](OC)[C@H]5O)[C@@H](C)O4)CC[C@]3(C)[C@@H]12 (some centres not stated) [Tenacissoside H] | 1.11
NCCc1ccc(S(=O)(=O)F)cc1 [AEBSF hydrochloride] | 1.13
CC(C)=CCOc1c2occc2cc2ccc(=O)oc12 [Imperatorin] | 0.977
N[C@@H](Cc1ccc(N(CCCl)CCCl)cc1)C(=O)O [Melphalan] | 1.15
C[C@@]12C[C@@H](c3ccoc3)OC(=O)[C@@H]1CC[C@]1(C)[C@H]2[C@@H]2C=C[C@@]1(O)C(=O)O2 [Columbin] | 1.06
CCO[C@H]1O[C@@H]2O[C@@]3(C)CC[C@H]4[C@H](C)CC[C@@H]([C@H]1C)[C@@]24OO3 [Arteether] | 1.06
CC(C)N(CCC(C(N)=O)(c1ccccc1)c1ccccn1)C(C)C (configuration not stated) [Disopyramide] | 0.956
C/C=C(\C)C(=O)N[C@@H](c1ccccc1)[C@@H](O)C(=O)O[C@H]1C[C@@]2(O)[C@@H](OC(=O)c3ccccc3)[C@@H]3[C@]4(OC(C)=O)CO[C@@H]4C[C@H](O)[C@@]3(C)C(=O)[C@H](OC(C)=O)C(=C1C)C2(C)C [Cephalomannine] | 0.129
CN(C)NC(=O)CCC(=O)O [Daminozide] | 1.1
NCCc1c[nH]c2ccc(O)cc12 [Serotonin hydrochloride] | 1.06
COc1ccc2c(c1)[nH]c1c(C)nccc12 [Harmine] | 1.07
COc1ccc2c(c1)/C(=C/c1cnc[nH]1)C(=O)N2 | 1
COc1ccc(C[C@H]2NC[C@H](O)[C@H]2OC(C)=O)cc1 [Anisomycin] | 0.376
COc1cc([C@@H]2c3cc4c(cc3[C@H](O)[C@H]3COC(=O)[C@H]23)OCO4)cc(OC)c1OC [Podophyllotoxin] | 0.279
